Here are results for 19 molecules from patent publication US20090306572A1 (Affibody, published 2009).

Sequences and labels used below:
B1: SEQ ID NO 37 (designed binder, not shown: large carriers; small tags and cut ends)
chain: VDNKFNKEGRGARMEIVCLPNLNWRQTVAFIRSLQDDPSQSANLLAEAKKLNDAQAPK
notes: Z variant tested as fusion with ABD
B2: SEQ ID NO 33 (designed binder, not shown: large carriers; small tags and cut ends)
chain: VDNKFNKESPGALSEIMALPNLNVHQYYAFIRSLLDDPSQSANLLAEAKKLNDAQAPK
notes: as for B1
B3: SEQ ID NO 25 (designed binder, not shown: large carriers; small tags and cut ends)
chain: VDNKFNKESAHAIGEIANLPNLNGGQLRAFILSLWDDPSQSANLLAEAKKLNDAQAPK
notes: as for B1
B4: SEQ ID NO 36 (designed binder, not shown: large carriers; small tags and cut ends)
chain: VDNKFNKECWMAPKEIYRLPNLNDWQRSAFIRSLCDDPSQSANLLAEAKKLNDAQAPK
notes: as for B1
B5: SEQ ID NO 31 (designed binder, not shown: large carriers; small tags and cut ends)
chain: VDNKFNKEMHIALQEIYALPNLNIAQSVAFIRSLVDDPSQSANLLAEAKKLNDAQAPK
notes: as for B1
B6: SEQ ID NO 34 (designed binder, not shown: large carriers; small tags and cut ends)
chain: VDNKFNKESMSAALEITRLPNLNVHQYYAFITSLRDDPSQSANLLAEAKKLNDAQAPK
notes: as for B1
B7: SEQ ID NO 45 (designed binder, not shown: large carriers; small tags and cut ends)
chain: VDNKFNKEKLHAAQEIGRLPNLNVHQYYAFITSLSDDPSQSANLLAEAKKLNDAQAPK
notes: as for B1
B8: SEQ ID NO 39 (designed binder, not shown: large carriers; small tags and cut ends)
chain: VDNKFNKEVTVAGVEIGQLPNLNLHQYYAFIRSLLDDPSQSANLLAEAKKLNDAQAPK
notes: as for B1
B9: SEQ ID NO 35 (designed binder, not shown: large carriers; small tags and cut ends)
chain: VDNKFNKEFVSAPREIHGLPNLNVTQRMAFIRSLLDDPSQSANLLAEAKKLNDAQAPK
notes: as for B1
B10: SEQ ID NO 42 (designed binder, not shown: large carriers; small tags and cut ends)
chain: VDNKFNKEGHMAVREIHGLPNLNVAQRMAFIRSLVDDPSQSANLLAEAKKLNDAQAPK
notes: as for B1
B11: SEQ ID NO 23 (designed binder, not shown: large carriers; small tags and cut ends)
chain: VDNKFNKESAHAVGEIGSLPNLNLVQIGAFIKSLWDDPSQSANLLAEAKKLNDAQAPK
notes: as for B1
B12: SEQ ID NO 46 (designed binder, not shown: large carriers; small tags and cut ends)
chain: VDNKFNKEVAAAVGEIGSLPNLNVGQFAAFIRSLWDDPSQSANLLAEAKKLNDAQAPK
notes: as for B1
B13: SEQ ID NO 24 (designed binder, not shown: large carriers; small tags and cut ends)
chain: VDNKFNKEGRPAGLEIMCLPNLNTAQMVAFIRSLTDDPSQSANLLAEAKKLNDAQAPK
notes: as for B1
B14: SEQ ID NO 28 (designed binder, not shown: large carriers; small tags and cut ends)
chain: VDNKFNKESNKAPCEIQDLPNLNIDQCIAFIRSLRDDPSQSANLLAEAKKLNDAQAPK
notes: as for B1
B15: SEQ ID NO 27 (designed binder, not shown: large carriers; small tags and cut ends)
chain: VDNKFNKEIVYAPREIFHLPNLNILQQIAFIRSLLDDPSQSANLLAEAKKLNDAQAPK
notes: as for B1
B16: SEQ ID NO 29 (designed binder, not shown: large carriers; small tags and cut ends)
chain: VDNKFNKEFHGALREIWKLPNLNVRQAMAFIRSLIDDPSQSANLLAEAKKLNDAQAPK
notes: as for B1
B17: His6-(Z00734)4 (designed binder)
chain: MGSSHHHHHHLQVDNKFNKEGHQALVEIFRLPNLNVQQATAFIRSLVDDPSQSANLLAEAKKLNDAQAPKVDNKFNKEGHQALVEIFRLPNLNVQQATAFIRSLVDDPSQSANLLAEAKKLNDAQAPKVDNKFNKEGHQALVEIFRLPNLNVQQATAFIRSLVDDPSQSANLLAEAKKLNDAQAPKVDNKFNKEGHQALVEIFRLPNLNVQQATAFIRSLVDDPSQSANLLAEAKKLNDAQAPKVDC
notes: His6-tagged tetrameric multimer in one chain
B18: His6-(Z00752)4 (designed binder)
chain: MGSSHHHHHHLQVDNKFNKEVVGAMLEIARLPNLNRGQVNAFIWSLADDPSQSANLLAEAKKLNDAQAPKVDNKFNKEVVGAMLEIARLPNLNRGQVNAFIWSLADDPSQSANLLAEAKKLNDAQAPKVDNKFNKEVVGAMLEIARLPNLNRGQVNAFIWSLADDPSQSANLLAEAKKLNDAQAPKVDNKFNKEVVGAMLEIARLPNLNRGQVNAFIWSLADDPSQSANLLAEAKKLNDAQAPKVDC
notes: as for B17
B19: His6-(Z00771)4 (designed binder)
chain: MGSSHHHHHHLQVDNKFNKEAYTASLEIANLPNLNMHQYYAFIHSLLDDPSQSANLLAEAKKLNDAQAPKVDNKFNKEAYTASLEIANLPNLNMHQYYAFIHSLLDDPSQSANLLAEAKKLNDAQAPKVDNKFNKEAYTASLEIANLPNLNMHQYYAFIHSLLDDPSQSANLLAEAKKLNDAQAPKVDNKFNKEAYTASLEIANLPNLNMHQYYAFIHSLLDDPSQSANLLAEAKKLNDAQAPKVDC
notes: as for B17

For the first test, the target named is T1, biotin-conjugated, recombinant TNF-α produced in E. coli (human, UniProt P01375 77-233, biotin-conjugated (sites not given)).
T1 construct: Research Diagnostics Inc, cat no RDI-301X; also called Biotinylated TNF-α
The test can be described thus: ELISA: Z-ABD fusion captured on HSA, biotinylated TNF-α 1 µg/ml, signal above threshold.
For the molecule B1, the binding result is listed as “binds”. On to B2, for which the binding result is listed as “binds”. As for B3, the binding result is on record as “binds”. B4: the binding result was “binds”. The same measure, in the same setting: the result for B5 reads “binds”. The same measure, in the same setting: for B6 the value was “binds”; for B7, “binds”; for B8, “binds”. On the same count and under the same terms, for B9 the value was “binds”; for B10, “binds”.

For B11, the binding result is recorded as “binds”. For the molecule B12, the binding result is “binds”. B13: the binding result is recorded as “binds”.

B14: the binding result is “binds”.

On to B15, for which the binding result is reported as “binds”. Turning to B16, the binding result was “binds”.

A further test concerns the target T2, Tumor necrosis factor α (human, UniProt P01375 77-233).
T2 construct: The source is not restated there; also called TNF-α
The test can be described thus: SPR (Biacore 2000), multimer amine-coupled to chip, TNF-α injected, 1:1 Langmuir, apparent KD. For orientation: In SPR one partner is held on a chip, and binding of the other changes the refractive index at the surface.
As to B17, the Kd was about 400 nM. The same measure, in the same setting: for B18 the value was about 400 nM; for B19, about 400 nM.
